Laboratory results: PubChem BioAssay (NCI)
Values joined by “and” are separate entries in the source; they are usually repeats but may differ in a detail not shown here. Identical values can stand only once.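 Tested at 5 concentrations; 48 h exposure; 96-well plates; endpoints linearly interpolated, else capped at highest concentration. GI50: concentration for 50% inhibition of growth. TGI: concentration producing complete growth inhibition.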

test system: NCI-H322M lung; assay: inhibition of tumour cell growth, NCI panel, 48 h

| SMILES | TGI | GI50 |
| --- | --- | --- |
| O=C1C=CC(=O)c2ccc(=O)ccc21 | 25.6 µM |  |
| Cn1c(=O)c2c(nc3sc4nc5ccccc5nc4n32)n(C)c1=O | > 100 µM |  |
| Clc1ccc(/C=C2\CCCC3C2=Nc2ccccc2NC3c2ccc(Cl)cc2)cc1 (stereo unspecified) | > 66.5 µM | 22 µM |
| CCCCc1ccc(Nc2nc(=S)c3ncn(COCCO)c3[nH]2)cc1 | > 100 µM |  |
| CC(C)C(=O)N1C(=O)O[C@@H](c2ccccc2)[C@H]1C | > 100 µM |  |
| CCOC(=O)C(NC(=O)CC(C)C)(NC(C)C)C(F)(F)F (stereo unspecified) | > 100 µM |  |
| c1cc(-c2ccsc2-c2ccsc2)cs1 | > 100 µM |  |
| CCC1=C(c2ccc(OC)cc2)CC[C@@]2(CCNC2=O)[C@@H]1C | > 100 µM |  |
| CCN(CC)c1ccc2cc(-c3nc(-c4ccccc4)n[nH]3)c(=O)oc2c1 | 81.9 µM |  |
| O=C(O)CCCn1c(SCc2c(Cl)cccc2Cl)nc2ccsc2c1=O | > 100 µM | 0.68 µM |
| Cc1ccc2nc(NC(=O)C(=O)C3C(=O)NC(=S)NC3=O)sc2c1 | > 100 µM |  |
| CCC(=C(C#N)C#N)c1cc(OC)c(OC)c(OC)c1 | > 100 µM |  |
| CC1(CO)OC(n2cnc3cncnc32)CC1O (stereo unspecified) | > 100 µM |  |
| OC1CC2CCCN(CCc3c1[nH]c1ccccc31)C2 (stereo unspecified) | > 100 µM |  |
| C=C(C)C(=O)OC1CC2(C)OC(=CC2=O)C(C)CC2OC(=O)C(=C)C12 (stereo unspecified) | > 57.2 µM |  |
| FC(F)(F)c1cccc(Nc2nc3ccccc3nc2Nc2cccc(C(F)(F)F)c2)c1 | 14.3 µM | 3.04 µM |
| FC(F)(F)C1(Cl)C(Cl)(c2ccccc2)C1(Cl)c1ccccc1 (stereo unspecified) | 31.3 µM |  |
| O=C(CON1C(=O)c2ccccc2C1=O)c1ccccc1 | > 100 µM |  |
| O=C1CC(c2ccccc2Cl)Oc2ccccc21 (stereo unspecified) | > 100 µM |  |
| NC1CSc2ccccc2NC1=O (stereo unspecified) | > 100 µM |  |
| CNC(=O)C(C)C1C(=O)/C(=C(O)/C=C\C(C)=C\C(C)C2OC3(C)OC(C=CC34CO4)C2C)C(=O)N1C1CCC(O)C(C)O1 (stereo unspecified) | > 100 µM |  |
| COc1cc(C2c3[nH]c4ccccc4c3[C@@H](Nc3ccc(F)cc3)[C@H]3COC(=O)N23)cc(OC)c1O (stereo partly specified) | > 10 µM |  |
| CC(=O)c1c(P(=O)(OC(C)C)OC(C)C)nn(-c2ccc([N+](=O)[O-])cc2)c1C | > 100 µM |  |
| Cn1cnc([N+](=O)[O-])c1[Se]c1ncnc2nc[nH]c12 | 50 µM |  |
| COC(=O)C12CCC(C(F)(F)C1=O)C2(C)C (stereo unspecified) | > 100 µM |  |

| SMILES | TGI | GI50 |
| --- | --- | --- |
| CC1CN1C1=CC(=O)c2c(c(CO)cn2C)C1=O (stereo unspecified) | 0.561 µM | 0.19 µM |
| CC1=NN(c2nc(N)nc(/C(C#N)=C\C3COc4ccccc4C3=O)n2)C(C)(C)C1 (stereo unspecified) | > 100 µM |  |
| CC1=CC2CCC1(C)C/C2=C(/C)OC=O (stereo unspecified) | > 100 µM |  |
| CCC(C(C)N1CC(=O)NC(=O)C1)N1CC(=O)NC(=O)C1 (stereo unspecified) | > 100 µM |  |
| COc1ccc(/C(=N\N=C(N)N)C(c2ccc(OC)cc2)C2OC(=O)c3ccccc32)cc1 (stereo unspecified) | > 100 µM |  |
| Cn1ccnc1Sc1ccc(/C=N/NC(=O)c2ccccc2[N+](=O)[O-])cc1[N+](=O)[O-] | > 100 µM |  |
| O=C(N=C1N(c2ccccc2)C(=O)C(=O)N1c1ccccc1)c1ccccc1 | 44.3 µM |  |
| COc1ccc(/C=C2/N=C(N/N=C\C(O)C(O)C(O)C(O)CO)NC2=O)cc1 (stereo unspecified) | > 100 µM |  |
| CC(=O)SSC1(Cl)C(C)(C)C(Cl)(SSC(C)=O)C1(C)C (stereo unspecified) | > 100 µM |  |
| CCCNC(=O)C(C)(Cl)C(=O)c1ccccc1O (stereo unspecified) | > 100 µM |  |
| Cc1ccc(S(=O)(=O)NC(=O)Nc2ccc(C(=O)O)c(O)c2)cc1 | > 100 µM |  |
| CC(C)C(Br)CC/C(CBr)=C(\Cl)CCl (stereo unspecified) | 27.9 µM |  |
| C[C@]12CC[C@@H]3c4cc(Br)c(O)c(Br)c4CC[C@H]3[C@@H]1CCC2=O | 48.3 µM |  |
| CC(=O)OC[C@]1(C)C=C2C(=O)[C@](C)(O)C3(CC3)C(C)=C2[C@H]1OC(=O)N(C)CCN(C)C(=O)OC(C)(C)C | 7.45 µM | 1.1 µM |
| COc1cccc(NC(=O)CC(=O)N2NC(c3ccccc3)C(N=Nc3cccc(C(=O)O)c3)C2=O)c1 (stereo unspecified) | > 100 µM |  |
| C[C@]12CCC3c4ccc(O)cc4CCC3C1CC[C@@]2(O)C#Cc1ccc(C#C/C=C\C#Cc2ccccc2N)cc1 (stereo partly specified) | 56.7 µM | 12.6 µM |
| C[C@@]1(CO)[C@H](O)CC[C@@]2(C)[C@H]1CC[C@H]1C[C@@H]3C[C@@]12CC[C@@]3(O)COC(=O)CN | > 500 µM and 234 µM | > 500 µM and 102 µM |
| NC(N)=C1CN(C2CCCCC2)C(=O)NC1=O | > 100 µM |  |
| O=C(Nc1cccc(-c2cccc(F)c2)c1)C1CCN(Cc2cccc3cccnc23)CC1 | 12.1 µM | 3.06 µM |
| COC(=O)c1cc2c3c(c1)Oc1cc(C(=O)OC)cc4c1C3c1c(cc(C(=O)OC)cc1O4)O2 | > 100 µM |  |
| COC1CC(OC2C(C)OC(OC3C(C)OC(OC4C(C)OC(O[C@H]5CC[C@@]6(C)C(=CC[C@]7(O)[C@@H]6C[C@@H](OC(=O)/C=C/c6ccccc6)[C@@]6(C)[C@]7(O)CC[C@@]6(O)C(C)=O)C5)CC4OC)CC3OC)CC2OC)OC(C)C1O (stereo partly specified) | > 12.5 µM |  |
| COc1ccc(CC#N)c(OCc2ccccc2)c1 | 74.4 µM |  |
| CC(=O)Oc1ccc(O)c2c1CCCC2 | > 100 µM |  |
| COc1ccc(/C=N/C2=C(C#N)C(c3ccccc3)c3c(ccc4ccccc34)O2)cc1 (stereo unspecified) | > 100 µM | 3.89 µM |
| CC1(C)C(OC(=O)c2ccccc2)C[C@]23CCC[C@](C)(C[C@@H](O)C12)C3 (stereo partly specified) | 33.1 µM |  |

| SMILES | TGI | GI50 |
| --- | --- | --- |
| COc1cccc2c(Nc3ccc(S(=O)(=O)Nc4ncccn4)cc3)c3ccc([N+](=O)[O-])cc3nc12 | > 100 µM |  |
| C[C@@H]1CCC[C@]2(C)O[C@H]2CC[C@@](C)(O)[C@@H]2CC3=C(CO)C(=O)O[C@H]3[C@H]1O2 | > 50 µM |  |
| COc1ccc(P2(=S)Oc3ccc(C(c4ccccc4)(c4ccccc4)c4ccccc4)cc3O2)cc1 (stereo unspecified) | 28.1 µM |  |
| NC(=O)N/N=C\c1ccccc1OCc1cccc(COc2ccccc2/C=N\NC(N)=O)n1 | > 100 µM |  |
| COc1ccc(S(=O)(=O)Nc2cc(/C=C\c3cc(OC)c(OC)c(OC)c3)cc(OC)c2OC)cc1 | > 100 µM | 0.0553 µM |
| Cc1cc(C)c2c(=O)n(CN3CCC(C#N)(c4ccccc4)CC3)sc2n1 | > 100 µM |  |
| Cc1ccc(C2c3c(n(C)c(=O)n(C)c3=O)OC(N(C)C)(N(C)C)C2(F)F)cc1 (stereo unspecified) | > 100 µM |  |
| O=C1OCC2=C1C(c1cccc(Cl)c1)c1cc3c(cc1N2CCO)OCO3 (stereo unspecified) | > 94.8 µM | 0.738 µM |
| O=Cc1cc2c(s1)C(=O)c1sccc1C2=O | 2.98 µM |  |
| O=[N+]([O-])/C(C(Cl)=C(Cl)Cl)=C(\Nc1cccc2ccccc12)Sc1ccccc1 | 63.8 µM |  |
| CCN(CC)CCN1C=CC(C)C(C(=O)O)C1C(N)=O (stereo unspecified) | > 100 µM |  |
| CC(=O)N=C1C=C(NC(C)=O)C(=O)c2ccccc21 | 26.7 µM |  |
| Cc1ccc(/C=C2\N=C(N3CCOCC3)NC2=O)cc1 | > 100 µM |  |
| C/C(O)=C/c1nc2ccccc2[nH]1 | > 100 µM |  |
| Cc1ccc(C2=C(c3ccc(C)cc3)C3(c4ccc(C)cc4)[C@@H](C#N)[C@H](C#N)C2(c2ccc(C)cc2)S3=O)cc1 (stereo partly specified) | > 100 µM | > 100 µM |
| COC(=O)CCCc1c(-c2[nH]c3ccccc3c2CCCC(=O)OC)[nH]c2ccccc12 | > 100 µM |  |
| COc1cc(/C=N/c2nncs2)ccc1O | > 100 µM |  |
| CC(C)NCC(O)c1cc(OCc2ccccc2)c(OCc2ccccc2)cc1NC(=O)CCC(=O)O (stereo unspecified) | 28.6 µM |  |
| COc1cc(OC)cc(C(=O)NC2=C(Cl)C(=O)c3ccccc3C2=O)c1 | 20 µM |  |
| Nc1nc2c(nc(N)n2Cc2ccccc2)c(=O)[nH]1 | > 100 µM |  |
| CN1CCN(c2ccc3nc(-c4c5cccccc-5[nH]c4=O)[nH]c3c2)CC1 | 62.4 µM | 13.9 µM |
| C[C@@H](O)[C@H]1C(=O)N2C(C(=O)O)=C(SCCN=CN)C[C@H]12 | 6.03 µM | 2.18 µM |
| CC(C)(C)OC(=O)Nc1nnc(S(N)(=O)=O)s1 | > 100 µM |  |
| CCCc1cc(=O)oc2c3c(c4c(c12)OC(C)(C)CC4)O[C@H](C)[C@@H](C)[C@H]3O | 30.2 µM |  |
| COc1ccc(/C=C/C(=O)c2cccc(B(O)O)c2)cc1O | 24.6 µM | 10.3 µM |

| SMILES | TGI | GI50 |
| --- | --- | --- |
| CN(C)CCNc1ccc(NCCN(C)C)c2c1C(=O)c1ncsc1C2=O | 29.5 µM |  |
| CN1CCN(CCn2c3c4ccccc4ccc3c3oc(=O)c4ccccc4c32)CC1 | 3.11 µM and 19.7 µM | 1.72 µM |
| CN(C)c1ccc2nc3ccc(N)cc3[n+](-c3ccccc3)c2c1 | 71.9 µM and 29.5 µM | 15 µM and 4.43 µM |
| COc1cccc2c1-c1ccccc1C2=O | > 100 µM | 4.53 µM |
| NC(=O)C1(c2ccccc2)Nc2ccccc2S1 (stereo unspecified) | > 100 µM |  |
| O=C1CCC(O)=C1N=Nc1cc(Cl)cc(Cl)c1 | > 100 µM |  |
| C1CN1c1nc(N2CC2)nc(N2CC2)n1 | 54.4 µM and 53.8 µM |  |
| Cc1cc(C)c(C#N)c(SC(=S)NC(=O)c2ccc(Cl)cc2)n1 | > 100 µM |  |
| Cc1cc(O)c2c3c1C(=O)Oc1c(CO)c(O)c(C(=O)O)c(c1O3)C=NN=Cc1c3c(c(CO)c(O)c1C(=O)O)OC(=O)c1c(C)cc(O)c(c1O3)C=NN=C2 | > 100 µM |  |
| O=C1c2ccc(O)cc2OC(c2cc(O)c(O)c(O)c2)C1O (stereo unspecified) | > 100 µM |  |
| Cn1cc(C2=C(c3cn(CCSC(=N)N)c4ccccc34)C(=O)NC2=O)c2ccccc21 | 8.64 µM | 3.98 µM |
| COc1cc(O)c2c(=O)c(OC)c(-c3ccc(OC)c(OC)c3)oc2c1.[Co] | > 100 µM |  |
| CCOC(=O)N/N=C(\Cc1ccccc1)OCC | > 100 µM |  |
| CCOC(=O)c1cc(NC(=O)N(CCC#N)CCN(C(=O)N[C@@H](Cc2ccccc2)C(=O)N[C@@H](CC(C)C)C(=O)NC)c2ccccc2)ccc1OC | > 100 µM |  |
| COc1ccc(-c2cc(-c3cc(F)c(Cl)cc3Cl)[nH]n2)cc1OC | > 100 µM |  |
| Clc1ccc(C2c3ccccc3-c3nccn32)c(Cl)c1 (stereo unspecified) | 27.2 µM | 14 µM |
| COc1ccc(NC(=O)C2C(=O)N(c3ccc(OC)cc3)C(=O)/C2=N\N)cc1 (stereo unspecified) | > 100 µM |  |
| CN=C(NN)NS(=O)(=O)c1cc(C)c(Cl)cc1S | > 100 µM |  |
| Cc1cc(Nc2cccc(F)c2)nc(NCc2ccccc2)n1 | 24.7 µM | 12.2 µM |
| NNC1=N/C(=C\c2ccccc2O)C(=O)N1 | > 100 µM |  |
| CC1CCC2(NC1)OC1CC3C4CCC5CC(OC6OC(CO)C(OC7OC(CO)C(O)C(OC8OCC(O)C(O)C8O)C7OC7OC(CO)C(O)C(O)C7O)C(O)C6O)CCC5(C)C4CCC3(C)C1C2C (stereo unspecified) | 3.73 µM |  |
| CN(C)c1ccc(/C=C/c2ccc3ccccc3[n+]2C)cc1 | > 100 µM |  |
| c1ccc(NNN2NC(c3ccccc3)C2c2ccccc2)cc1 (stereo unspecified) | > 100 µM |  |
| Cn1c(=O)cc(NNc2ccccc2)[nH]c1=O | > 100 µM |  |
| O=C(CCN1CCCC1)CC(c1ccccc1)c1c(O)c2ccccc2oc1=O (stereo unspecified) | > 100 µM |  |
